Test results taken from US20050282943A1, “Solubilized additive composition comprising acidic and basic constituents” (INVISTA NORTH AMERICA S.A R.L., priority 2004, published 2005).

Assay: Dissolution of water insoluble additive in demineralized water on adding a counterpart salt forming species (visual)

dissolution (observation) (Example 12 mixture heated to about 75° C.): still not all the solids had dissolved | dissolution (observation) (Irganox 1310 0.0075 mol added to triacetonediamine 0.005 mol in 10 g demineralized water (Example 12)): not all the Irganox 1310 dissolved
Compound: CC(C)(C)c1cc(CCC(=O)O)cc(C(C)(C)C)c1O [Irganox 1310, 3-(3,5-di-t-butyl-4-hydroxyphenyl)propionic acid]
dissolution (observation) (Irganox 1310 0.01 mol + triacetonediamine 0.01 mol in 10 g demineralized water (Example 11)): a clear colourless solution formed with most of the solids dissolved
